Experiment [1] concerns the target JARID1A (mouse (endogenous in MEL)) (UniProt Q3UXZ9). The experiment is described as follows: co-IP; nuclear extracts of undifferentiated MEL cells, endogenous proteins; IP with antibodies against JARID1A or against the components of the pentameric complex on protein G Dynabeads, overnight at 4°C, 150 mM NaCl, 0.3% NP-40; immunoblot.
For experiment [2], the target named is GATA1NFCF (201-313) (human) (UniProt P15976). Briefly: AUC; sedimentation velocity, 20°C, proteins at 0.04 mM, equimolar mixtures, 50 mM HEPES pH 8, 200 mM NaCl, 1 mM DTT; apparent sedimentation coefficients, c(s) and c(s,f/f0) analysis; both purified.
The target in experiment [3] is SCL(180-253)/E47(535-613) bHLH (human) (UniProt P17542+P15923). The description is as above.

Amino acid sequences for entries named in this document (tags omitted). A change or cut given only in a name is not applied to a line headed by its entry. Residues count along the entry.
UniProt P15976, residues 201-313: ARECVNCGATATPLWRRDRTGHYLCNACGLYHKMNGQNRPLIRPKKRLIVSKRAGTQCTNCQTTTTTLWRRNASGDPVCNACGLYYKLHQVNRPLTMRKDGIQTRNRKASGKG
UniProt P17542: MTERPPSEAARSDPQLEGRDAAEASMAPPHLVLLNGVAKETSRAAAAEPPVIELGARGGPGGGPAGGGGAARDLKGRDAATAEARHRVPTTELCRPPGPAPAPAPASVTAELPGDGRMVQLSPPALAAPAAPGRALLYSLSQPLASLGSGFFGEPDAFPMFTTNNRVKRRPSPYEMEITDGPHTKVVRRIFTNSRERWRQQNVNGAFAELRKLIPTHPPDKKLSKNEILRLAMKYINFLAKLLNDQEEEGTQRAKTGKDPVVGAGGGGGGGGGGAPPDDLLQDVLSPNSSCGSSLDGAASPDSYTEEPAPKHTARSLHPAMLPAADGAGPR
UniProt P15923: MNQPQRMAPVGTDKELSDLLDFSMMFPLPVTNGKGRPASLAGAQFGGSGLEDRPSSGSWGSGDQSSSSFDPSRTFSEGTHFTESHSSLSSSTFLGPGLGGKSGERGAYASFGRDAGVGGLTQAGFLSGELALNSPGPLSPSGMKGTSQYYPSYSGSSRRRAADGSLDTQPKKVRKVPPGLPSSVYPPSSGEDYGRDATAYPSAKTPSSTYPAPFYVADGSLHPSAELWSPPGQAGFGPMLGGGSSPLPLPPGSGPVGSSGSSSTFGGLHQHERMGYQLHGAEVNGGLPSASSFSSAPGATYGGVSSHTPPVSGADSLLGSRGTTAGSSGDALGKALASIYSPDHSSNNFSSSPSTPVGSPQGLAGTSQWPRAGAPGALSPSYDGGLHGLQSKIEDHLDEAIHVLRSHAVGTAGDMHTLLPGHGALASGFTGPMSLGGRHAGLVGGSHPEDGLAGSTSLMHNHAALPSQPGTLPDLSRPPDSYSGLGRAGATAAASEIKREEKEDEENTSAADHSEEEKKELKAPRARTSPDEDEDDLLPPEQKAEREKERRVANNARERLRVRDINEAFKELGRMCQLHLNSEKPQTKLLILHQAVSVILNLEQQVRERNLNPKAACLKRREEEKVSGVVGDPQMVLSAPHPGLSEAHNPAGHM
UniProt P17679: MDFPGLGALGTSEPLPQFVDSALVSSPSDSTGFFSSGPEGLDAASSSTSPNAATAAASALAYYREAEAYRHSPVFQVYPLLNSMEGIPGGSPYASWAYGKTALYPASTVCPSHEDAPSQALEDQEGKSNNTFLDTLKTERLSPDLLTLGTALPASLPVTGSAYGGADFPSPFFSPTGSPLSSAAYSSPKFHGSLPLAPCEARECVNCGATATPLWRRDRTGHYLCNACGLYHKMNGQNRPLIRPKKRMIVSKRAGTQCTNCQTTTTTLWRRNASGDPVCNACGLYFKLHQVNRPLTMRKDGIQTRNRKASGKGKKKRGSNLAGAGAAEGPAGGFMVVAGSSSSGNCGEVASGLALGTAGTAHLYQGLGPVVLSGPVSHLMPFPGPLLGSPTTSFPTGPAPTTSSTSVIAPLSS
UniProt P22091: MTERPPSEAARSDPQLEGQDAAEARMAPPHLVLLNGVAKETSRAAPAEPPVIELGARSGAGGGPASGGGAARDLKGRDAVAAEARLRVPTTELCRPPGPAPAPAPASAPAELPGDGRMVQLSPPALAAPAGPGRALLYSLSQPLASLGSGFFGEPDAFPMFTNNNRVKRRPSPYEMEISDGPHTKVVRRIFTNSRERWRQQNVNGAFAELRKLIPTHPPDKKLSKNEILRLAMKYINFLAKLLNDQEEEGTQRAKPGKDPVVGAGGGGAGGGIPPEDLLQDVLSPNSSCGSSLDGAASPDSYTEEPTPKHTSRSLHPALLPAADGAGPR

No constants are given. Whether binding was seen depends on the method and setting. For some assays here: In cells and extracts the contact can be indirect. Some entries that bind do so weakly or less than the wild type. For some assays here: Where a sequence is shown, tags or fusion partners need not be part of it.

For the molecule GATA1 (from UniProt P17679 1-413), in experiment [1], the binding result was “binds”.
Turning to SCL (from UniProt P22091 1-329), the binding entry in experiment [1] is “binds”.

B1: GST PHD1 (282-360) of JARID1A (domain or fragment, UniProt Q3UXZ9 282-360)
chain: RKGTLSVNFVDLYVCMFCGRGNNEDKLLLCDGCDDSYHTFCLLPPLPDVPKGDWRCPKCVAEECNKPREAFGFEQAVRE
Regarding B1, the binding entry in experiment [2] is “no binding (tested: 0.04 mM)”.

B2: GST PHD2 (1156-1222) of JARID1A (domain or fragment, UniProt Q3UXZ9 1156-1222)
chain: ERIEEVKFCICRKTASGFMLQCELCKDWFHNSCVPLPKSSSQKKGSSWQAKDVKFLCPLCMRSRRPR
B2: the binding entry is “no binding (tested: 0.04 mM)” in experiment [3] and “binds” in experiment [2].

B3: His-tag PHD2 domain of JARID1A (domain or fragment, UniProt Q3UXZ9 1156-1222)
chain: ERIEEVKFCICRKTASGFMLQCELCKDWFHNSCVPLPKSSSQKKGSSWQAKDVKFLCPLCMRSRRPR
As for B3, in experiment [2], the binding entry is on record as “binds”.

B4: GST PHD3 (1608-1659) of JARID1A (domain or fragment, UniProt Q3UXZ9 1608-1659)
chain: AVCAAQNCQRPCKDKVDWVQCDGGCDEWFHQVCVGVSAEMAENEDYICINCA
B4: the binding result in experiment [3] and in experiment [2] was “no binding (tested: 0.04 mM)” in each case.

The record behind these values is paper PMC7029945.
